Sequences and labels used below:
T1: RBFOX1 RRM RbFoxmut (Fox-RRM*) (Homo sapiens, UniProt Q9NWB1 109-208, R118D;E147R;N151S;E152T)
T1 sequence: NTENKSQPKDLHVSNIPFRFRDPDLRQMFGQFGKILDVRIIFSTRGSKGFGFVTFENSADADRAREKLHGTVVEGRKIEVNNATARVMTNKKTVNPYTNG

B1: CCGAACC (DNA:RNA)
RNA: GGGAGACCGGAAUUCAGAUUGUCCCCGAACCUUAAAUCCCGUCGUAGCCACCA
DNA 1: CAATCTGAATTCCGGTCTCCC
DNA 2: TGGTGGCTACGACGGGATT
B2: UGCGCUA (DNA:RNA)
RNA: GGGAGACCGGAAUUCAGAUUGUCCUGCGCUAUUAAAUCCCGUCGUAGCCACCA
DNA 1: CAATCTGAATTCCGGTCTCCC
DNA 2: TGGTGGCTACGACGGGATT
B3: AAAUCGC (DNA:RNA)
RNA: B1 RNA with C25A, C26A, G27A, A28U, A29C, C30G
DNA 1: CAATCTGAATTCCGGTCTCCC
DNA 2: TGGTGGCTACGACGGGATT
B4: CCCCUAC (DNA:RNA)
RNA: B1 RNA with G27C, A28C, A29U, C30A
DNA 1: CAATCTGAATTCCGGTCTCCC
DNA 2: TGGTGGCTACGACGGGATT
B5: CAUCGAA (DNA:RNA)
RNA: B1 RNA with C26A, G27U, A28C, A29G, C30A, C31A
DNA 1: CAATCTGAATTCCGGTCTCCC
DNA 2: TGGTGGCTACGACGGGATT
B6: CGAAUGU (DNA:RNA)
RNA: B1 RNA with C26G, G27A, A29U, C30G, C31U
DNA 1: CAATCTGAATTCCGGTCTCCC
DNA 2: TGGTGGCTACGACGGGATT
B7: CCUGCUU (DNA:RNA)
RNA: B2 RNA with U25C, G26C, C27U, A31U
DNA 1: CAATCTGAATTCCGGTCTCCC
DNA 2: TGGTGGCTACGACGGGATT
B8: UUGGUAC (DNA:RNA)
RNA: B1 RNA with C25U, C26U, A28G, A29U, C30A
DNA 1: CAATCTGAATTCCGGTCTCCC
DNA 2: TGGTGGCTACGACGGGATT
B9: CGUGCCG (DNA:RNA)
RNA: B2 RNA with U25C, C27U, U30C, A31G
DNA 1: CAATCTGAATTCCGGTCTCCC
DNA 2: TGGTGGCTACGACGGGATT
B10: CCAGAGC (DNA:RNA)
RNA: B1 RNA with G27A, A28G, C30G
DNA 1: CAATCTGAATTCCGGTCTCCC
DNA 2: TGGTGGCTACGACGGGATT
B11: GUUAGCG (DNA:RNA)
RNA: B1 RNA with C25G, C26U, G27U, A29G, C31G
DNA 1: CAATCTGAATTCCGGTCTCCC
DNA 2: TGGTGGCTACGACGGGATT
B12: GGCUGGU (DNA:RNA)
RNA: B2 RNA with U25G, G28U, C29G, U30G, A31U
DNA 1: CAATCTGAATTCCGGTCTCCC
DNA 2: TGGTGGCTACGACGGGATT
B13: UACAUUG (DNA:RNA)
RNA: B2 RNA with G26A, G28A, C29U, A31G
DNA 1: CAATCTGAATTCCGGTCTCCC
DNA 2: TGGTGGCTACGACGGGATT
B14: AAAAUUG (DNA:RNA)
RNA: B1 RNA with C25A, C26A, G27A, A29U, C30U, C31G
DNA 1: CAATCTGAATTCCGGTCTCCC
DNA 2: TGGTGGCTACGACGGGATT
B15: GUUUUAC (DNA:RNA)
RNA: B1 RNA with C25G, C26U, G27U, A28U, A29U, C30A
DNA 1: CAATCTGAATTCCGGTCTCCC
DNA 2: TGGTGGCTACGACGGGATT
B16: GAUUCUA (DNA:RNA)
RNA: B2 RNA with U25G, G26A, C27U, G28U
DNA 1: CAATCTGAATTCCGGTCTCCC
DNA 2: TGGTGGCTACGACGGGATT
B17: GCAUCAG (DNA:RNA)
RNA: B1 RNA with C25G, G27A, A28U, A29C, C30A, C31G
DNA 1: CAATCTGAATTCCGGTCTCCC
DNA 2: TGGTGGCTACGACGGGATT
B18: CAUCACU (DNA:RNA)
RNA: B1 RNA with C26A, G27U, A28C, C31U
DNA 1: CAATCTGAATTCCGGTCTCCC
DNA 2: TGGTGGCTACGACGGGATT
B19: AUUCUUU (DNA:RNA)
RNA: B2 RNA with U25A, G26U, C27U, G28C, C29U, A31U
DNA 1: CAATCTGAATTCCGGTCTCCC
DNA 2: TGGTGGCTACGACGGGATT
B20: UCGGUGG (DNA:RNA)
RNA: B1 RNA with C25U, A28G, A29U, C30G, C31G
DNA 1: CAATCTGAATTCCGGTCTCCC
DNA 2: TGGTGGCTACGACGGGATT

Positions count from the first letter of the chain named. The list shows a part of the results.

For the experiment, the target named is T1, RBFOX1 RRM RbFoxmut (Fox-RRM*). Put plainly: EMSA; HiTS-Eq, 1 nM pool, 10 min; buffer printed only for the single-RNA assays: 10 mM Tris pH 7.5, 150 mM NaCl, 3.4 mM EDTA, 0.001% NP-40, 30 C. To be noted: tags: His6 N-terminal (pET28a); label: 5' 32P. In outline: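 These values rest on relative association constants, computed from read-count changes of each RNA species versus the control reaction and normalised to the cognate motif. Reads came from free RNA recovered by 8% native PAGE after purified RbFox RRM (wild type or mutant) at increasing concentrations was equilibrated for 10 min in 50 µL with 1 nM of a 5′-radiolabelled pool with 7 randomized nucleotides and DNA-annealed flanks.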
For orientation: A gel shift assay detects complexes by their altered migration in electrophoresis.
As to B1, the binding signal is 0.0994 KA relative to UGCAUGU.
For B2, the binding signal is 0.0984 KA relative to UGCAUGU.
For B3 the value was 0.0855 KA relative to UGCAUGU; for B4, 0.0959 KA relative to UGCAUGU.
For B5 the value was 0.107 KA relative to UGCAUGU; for B6, 1.07 KA relative to UGCAUGU.
For B7, the binding signal is 0.0863 KA relative to UGCAUGU.
B8: the binding signal is 0.144 KA relative to UGCAUGU.
For B9 the value was 0.102 KA relative to UGCAUGU; for B10, 0.0979 KA relative to UGCAUGU; for B11, 0.116 KA relative to UGCAUGU.
As for B12, the binding signal was 0.14 KA relative to UGCAUGU.
B13: the binding signal was 0.067 KA relative to UGCAUGU.
For B14 the value was 0.0836 KA relative to UGCAUGU; for B15, 0.0851 KA relative to UGCAUGU; for B16, 0.1 KA relative to UGCAUGU.
Regarding B17, the binding signal is 0.382 KA relative to UGCAUGU.
Regarding B18, the binding signal is 0.0917 KA relative to UGCAUGU.
For B19 the value was 0.0987 KA relative to UGCAUGU; for B20, 0.112 KA relative to UGCAUGU.

(Values after article PMC9911399, “Two distinct binding modes provide the RNA-binding protein RbFox with extraordinary sequence specificity”.)
